This passage reports Potency results from PubChem BioAssay AID360 (National Center for Advancing Translational Sciences (NCATS), 2006).

Out of some 48,000 compounds screened, about 550 (1.1%) were called active. About 4% were inconclusive and are not listed. Cut-off read from the data, not from the text of the source: active = potency below about 15 µM; inconclusive = mostly about 16 µM to 33 µM; inactive = weaker than that. The list shows a part of the results.
Potency is the fitted concentration of half-maximal effect.

Chain of UniProt P04062 (P04062 whole entry, looked up): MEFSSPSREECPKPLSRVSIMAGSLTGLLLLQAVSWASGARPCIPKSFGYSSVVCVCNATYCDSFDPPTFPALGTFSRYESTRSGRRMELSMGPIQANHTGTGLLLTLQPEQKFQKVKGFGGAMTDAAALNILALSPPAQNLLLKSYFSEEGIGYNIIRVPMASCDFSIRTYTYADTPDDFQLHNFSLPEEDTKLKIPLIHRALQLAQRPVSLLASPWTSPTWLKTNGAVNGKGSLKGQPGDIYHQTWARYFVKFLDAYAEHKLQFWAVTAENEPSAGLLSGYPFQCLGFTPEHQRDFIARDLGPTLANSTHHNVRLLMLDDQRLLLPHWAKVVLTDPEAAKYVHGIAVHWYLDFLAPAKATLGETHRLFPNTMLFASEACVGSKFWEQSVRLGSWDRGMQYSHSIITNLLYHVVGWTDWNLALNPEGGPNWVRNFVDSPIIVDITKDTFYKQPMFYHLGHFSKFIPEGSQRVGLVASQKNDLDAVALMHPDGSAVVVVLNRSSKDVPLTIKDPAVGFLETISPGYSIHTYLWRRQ

For this assay, the target named is Lysosomal acid glucosylceramidase (Homo sapiens) (UniProt P04062). The assay can be described thus: Glucocerebrosidase.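 Note: the screen sought inhibitors.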 The conditions noted are these: purified enzyme, resorufin glucoside fluorescence (screen aimed at inhibitors), 20 min. A digest of the protocol:
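Wild-type enzyme at 0.2 nM final in 50mM citric acid/KH2PO4, 10mM sodium taurocholate, 0.01% tween-20, pH 5.9, with resorufin beta-D-glucopyranoside at 30 uM final. Compounds titrated, 20 min at RT, red fluorescence read; AC50 from titration.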
As to `CCCOc1ccc(C2/C(=C(/O)c3ccc(F)cc3)C(=O)C(=O)N2CCCN(C)C)cc1` (stereo not given), the Potency is inactive: > 76.9 µM.
As for `CC(C(=O)NCc1ccccc1)N1C(=O)CN(C)C(=O)c2ccccc21` (stereo not given), the figure is inactive: > 76.9 µM; as for `O=C(c1ccco1)N1CCN(C(=O)C2CCCN(S(=O)(=O)Cc3ccccc3)C2)CC1` (stereo not given), inactive: > 76.9 µM.
Turning to `O=C(CCCc1cccs1)Nc1nc2c(s1)CCCC2`, the Potency is inactive: > 76.9 µM.
As for `C=CCSC1=C(C#N)C(c2ccccc2)CC(=O)N1` (stereo not given), the figure is inactive: > 76.9 µM; as for `CC(NC(=O)c1ccccc1)c1nc2ccccc2n1Cc1ccc(C#N)cc1` (stereo not given), inactive: > 76.9 µM; as for `Cc1cc2cc(CCNS(C)(=O)=O)c(=O)[nH]c2cc1C`, inactive: > 76.9 µM.
Turning to `c1ccc(-n2nnnc2-n2cnc3ccccc32)cc1`, the Potency was inactive: > 76.9 µM.
As to `O=C(CCn1nc(-c2ccc(Cl)cc2)ccc1=O)NCc1ccccn1`, the Potency is inactive: > 76.9 µM.
On to `O=C(c1ccccc1)c1coc2ccc(O)c(Cl)c12`, for which the Potency was inactive: > 76.9 µM.
As to `CN(C)S(=O)(=O)c1cccc(C(=O)OCC(=O)N2c3ccccc3NC(=O)C2(C)C)c1`, the Potency is inactive: > 76.9 µM.
On to `CCOC(=O)CSc1nnc(CNC(=O)c2ccc(OC)cc2)n1-c1ccc(OC)cc1`, for which the Potency is inactive: > 76.9 µM.
Regarding `O=C(O)C1CCCCC1C(=O)NCCCc1ccccc1` (stereo not given), the Potency was inactive: > 76.9 µM.
Consider `Cc1cc(C(F)F)n2nc(C(=O)Nc3ccc(F)cc3F)nc2n1`, for which the Potency is inactive: > 76.9 µM.
As for `COc1ccc(N2CCCn3c2nc2c3c(=O)n(Cc3ccccc3F)c(=O)n2C)c(OC)c1`, the figure is inactive: > 76.9 µM; as for `CCN(C(=O)COc1cc(=O)n(CC)c2ccccc12)c1cccc(Cl)c1`, inactive: > 76.9 µM; as for `Cc1cccc(-n2nnnc2SCc2csc(-c3ccccc3)n2)c1`, inactive: > 76.9 µM.
The value for `Cc1ccc(N2CC(C(N)=O)CC2=O)cc1` (stereo not given) was inactive: > 76.9 µM.
With `COCCNC(=O)c1cnn2c(C(F)(F)F)cc(-c3ccc4c(c3)OCO4)nc12`, the Potency was inactive: > 76.9 µM.
For the molecule `CCN(CC(=O)Nc1c(C(=O)OC)[nH]c2ccc(Cl)cc12)c1ccc2c(c1)OCO2`, the Potency is inactive: > 76.9 µM.
Take `COc1ccc(S(=O)(=O)N(Cc2cc3ccc(OC)cc3[nH]c2=O)CC2COCCO2)cc1` (stereo not given): the Potency was inactive: > 76.9 µM.
Turning to `Cc1c(Cl)cccc1N(CC(=O)N1CCCCCC1)S(C)(=O)=O`, the Potency was inactive: > 76.9 µM.
For `CC1CCN(C(=O)C2CCN(S(=O)(=O)c3cnc[nH]3)CC2)CC1`, the Potency was inactive: > 76.9 µM.
For the molecule `CCCNS(=O)(=O)c1ccc(OCC(=O)NCc2ccc3c(c2)OCO3)cc1`, the Potency was inactive: > 76.9 µM.
`Cc1cc(C)nc(SCC(=O)Nc2ncc3c(n2)CCCC3=O)n1`: the Potency is inactive: > 76.9 µM.
As to `CC(=O)N1CCC(O)(c2cccc(C(F)(F)F)c2)CC1`, the Potency is inactive: > 76.9 µM.
Regarding `CC(=O)N1CCc2cc(S(=O)(=O)CCC(=O)NCc3ccc4c(c3)OCO4)ccc21`, the Potency was inactive: > 76.9 µM.
As for `CCOC(=O)c1c(C)[nH]c(C(=O)COC(=O)CSCC(=O)N(CC)CC)c1C`, the Potency is inactive: > 76.9 µM.
As to `Cc1c(N(C)C)nc2ccccc2c1N`, the Potency is inactive: > 76.9 µM.
`CN(C)c1nc(OCCOC(=O)c2ccccc2)nc(N(C)C)n1`: the Potency is inactive: > 76.9 µM.
`COCC(C)NC(=O)c1cc(-c2ccc(OC)c(OC)c2)on1` (stereo not given): the Potency is inactive: > 76.9 µM.
The value for `CCn1nc(NC(=O)c2ccccn2)c2cc3cccc(C)c3nc21` was inactive: > 76.9 µM; that for `Cc1oc(-c2cccs2)nc1CS(=O)CC(=O)NCCCOC(C)C` (stereo not given) was inactive: > 76.9 µM.
In the case of `COCCOC(=O)c1c(C)oc2ccc(OC(=O)c3c(OC)cccc3OC)cc12`, the Potency is inactive: > 76.9 µM.
`COc1ccc(C2c3sc(=O)[nH]c3SC3C4CCC(C4)C23)cc1` (stereo not given): the Potency is inactive: > 76.9 µM.
As to `O=C(CN(Cc1ccccc1C(F)(F)F)C(=O)CNC(=O)c1ccco1)NC1CCCC1`, the Potency was inactive: > 76.9 µM.
As for `CCOc1ccc2cc(C#N)c(SCC(=O)OC)nc2c1`, the Potency is inactive: > 76.9 µM.
On to `CC(=O)Nc1ccccc1C(=O)N1CC2(C)CC1CC(C)(C)C2` (stereo not given), for which the Potency was inactive: > 76.9 µM.
With `CCC(C)NC(=O)CCNS(=O)(=O)c1ccc(Br)cc1` (stereo not given), the Potency is inactive: > 76.9 µM.
Regarding `O=C(O)CSc1nnc(-c2cc3ccccc3o2)n1-c1ccccc1`, the Potency was inactive: > 76.9 µM.
`COc1ccc(-c2cc(N)n(S(=O)(=O)c3c(F)c(F)c(F)c(F)c3F)n2)cc1OC`: the Potency was inactive: > 76.9 µM.
For the molecule `CC(=O)OC(C(=O)NCc1ccco1)c1ccncc1` (stereo not given), the Potency was inactive: > 76.9 µM.
As for `Cc1ccccc1Cn1ccc(NC(=O)c2nc3ncccn3n2)n1`, the figure is inactive: > 76.9 µM; as for `C1CCC(n2nnnc2CN2CCCC2)CC1`, inactive: > 76.9 µM.
As for `CC(=O)c1c(C)[nH]c(C(=O)Nc2c(C)n(C)n(-c3ccccc3)c2=O)c1C`, the figure is inactive: > 76.9 µM; as for `CCn1c(SCC(=O)Nc2ccccc2C(=O)OC)nnc1-c1ccoc1C`, inactive: > 76.9 µM; as for `CCOC(=O)CSc1nc2c(c(=O)[nH]c(=O)n2C)n1CCCc1ccccc1`, inactive: > 76.9 µM.
Turning to `CC(CN1CCOCC1)C(=O)O` (stereo not given), the Potency is inactive: > 76.9 µM.
`Cc1ccc(OCCn2c(NC(=O)c3ccco3)nc3ccccc32)cc1`: the Potency was inactive: > 76.9 µM.
Take `CCC(C)n1[nH]c(=O)c2c(C)cc(C)nc21` (stereo not given): the Potency is inactive: > 76.9 µM.
In the case of `CCOc1ccc2cc(C#N)c(SCC(=O)NC(C)CC)nc2c1` (stereo not given), the Potency is inactive: > 76.9 µM.
The value for `CC(=O)O[C@H]1CSC[C@H]1NC(=O)c1ccccc1` was inactive: > 76.9 µM.
Regarding `O=C(c1nc2ncccn2n1)N1CCN(c2ccccc2)CC1`, the Potency is inactive: > 76.9 µM.
With `CN(C)CCNc1nc2c(c(=O)[nH]c(=O)n2C)n1CC(O)COc1ccc(Cl)cc1` (stereo not given), the Potency is inactive: > 76.9 µM.
The value for `COCCn1c(C)cc(C(=O)CSc2n[nH]c(N)n2)c1C` was inactive: > 76.9 µM.
The value for `Cc1ccc(C(C(=O)NC2CCCC2)N(Cc2cccs2)C(=O)CNC(=O)c2cccs2)o1` (stereo not given) was “inactive”; that for `C=CCNC(=O)Nc1ccc(OCC)cc1` was inactive: > 76.9 µM; that for `Cc1oc2ccc(OCC(N)=O)cc2c1C(=O)OC(C)C` was inactive: > 76.9 µM.
On to `COC(=O)[C@H](C)NC(=O)NC1CCCc2ccccc21` (stereo not given in full), for which the Potency was inactive: > 76.9 µM.
`CC1(C(=O)NC2CCCC2)CCC(=O)N1Cc1cccs1` (stereo not given): the Potency was inactive: > 76.9 µM.
`CN(C)S(=O)(=O)c1cccc(CSc2cccc[n+]2[O-])c1`: the Potency was inactive: > 76.9 µM.
`CCOC(=O)c1oc2ccc(S(=O)(=O)Nc3ccc4c(c3)n(C)c(=O)n4C)cc2c1C`: the Potency was inactive: > 76.9 µM.
Turning to `COc1ccc(NS(=O)(=O)c2cc(C)ccc2OC)cc1OC`, the Potency was inactive: > 76.9 µM.
In the case of `CCOc1ccccc1NC(=O)COc1cccc(-n2cnnn2)c1`, the Potency is inactive: > 76.9 µM.
On to `C=C1C(C(=O)N2CCN(C)CC2)C1C(=O)N1CCN(C)CC1` (stereo not given), for which the Potency was inactive: > 76.9 µM.
In the case of `Cc1ccc2[nH]c3c(=O)n(CCN4CCNCC4)cnc3c2c1`, the Potency was inactive: > 15.4 µM.
For the molecule `CC1CCCCN1c1nc(-c2ccncc2)nc2ccccc12` (stereo not given), the Potency entry is “inactive”.
Consider `COc1ccccc1N(CN1CCCC1=O)C(=O)COc1ccccc1`, for which the Potency is inactive: > 76.9 µM.
For `CCOc1cc(C(=O)Nc2ccc(S(=O)(=O)Nc3cc(C)on3)cc2)cc(OCC)c1OCC`, the Potency was inactive: > 76.9 µM.
The value for `CCOC(=O)C1CCN(Cc2ccc(F)cc2)CC1` was inactive: > 76.9 µM; that for `CCOC(=O)CCCNC(=O)COc1ccccc1C#N` was “inactive”; that for `CC(C)CCNC(=O)CCn1nc(-c2ccccc2)ccc1=O` was inactive: > 76.9 µM.
As for `O=C(NC1CCCCC1)c1ccc(CNc2ccccc2)o1`, the entry is “inactive”; as for `COc1ccccc1N1C(=O)CC(Sc2nccc(C)n2)C1=O` (stereo not given), inactive: > 76.9 µM; as for `CC1=C(C(=O)Nc2ccccc2C)C(c2ccc(C)o2)N2C(=O)CSC2=N1` (stereo not given), inactive: > 76.9 µM.
The value for `CCOC(=O)c1ccc(NC(=O)N2CCN(CCc3ccccc3)CC2)cc1` was inactive: > 76.9 µM; that for `COCCNC(=O)CN1c2ccccc2CC1C` (stereo not given) was inactive: > 76.9 µM.
As to `CCOC(=O)C1=C(CN2CCC(C)CC2)NC(=O)NC1c1ccc(Cl)cc1` (stereo not given), the Potency was inactive: > 76.9 µM.
For the molecule `CC(C)C(C(=O)OCC(=O)c1ccc2c(c1)NC(=O)CO2)N1C(=O)c2ccccc2C1=O` (stereo not given), the Potency is inactive: > 76.9 µM.
For `CCCC(=O)Nc1sc(C(=O)OC)c(C)c1C(N)=O`, the Potency was inactive: > 76.9 µM.
As for `CCOC(=O)N1CCC(NC(=O)C(Cc2ccccc2)NC(=O)C2CCCCC2)CC1` (stereo not given), the figure is inactive: > 76.9 µM; as for `O=C(Nc1ccccc1Cl)NC1(C(=O)NCCCN2CCOCC2)CCCCC1`, inactive: > 76.9 µM.
As for `CC(C)CN(C(=O)COC(=O)CCN1C(=O)c2ccccc2C1=O)C1CCS(=O)(=O)C1` (stereo not given), the Potency was inactive: > 76.9 µM.
As to `Cc1c(NC(=O)c2ccc(Cl)c(S(=O)(=O)N3CCOCC3)c2)c(=O)n(-c2ccccc2)n1C`, the Potency was inactive: > 76.9 µM.
`NS(=O)(=O)c1ccc(NC(=O)CN2CCN(Cc3ccccc3)CC2)cc1`: the Potency was inactive: > 76.9 µM.
For the molecule `Cc1cc(N2CCN(C)CC2)nc2ccc(NC(=O)c3ccc4c(c3)OCO4)cc12`, the Potency was active: 1.06 µM.
Consider `Cn1c(=O)[nH]c(=O)c2c1nc(NCc1ccccc1)n2CC(O)c1ccccc1` (stereo not given), for which the Potency is inactive: > 76.9 µM.
In the case of `CC(=O)Nc1ccc(NC(=O)Cn2cc3c(n2)CCC(C)C3)cc1` (stereo not given), the Potency was inactive: > 76.9 µM.
As for `Cc1cc(C#N)c(C)n1-c1cc(C(F)(F)F)ccc1N1CCOCC1`, the entry is “inactive”.
For the molecule `CN1CCN(CCc2nc3cc(NC(=O)COc4ccccc4)ccc3n2C)CC1`, the Potency was inactive: > 76.9 µM.
